Reference: the antibiotic and cytotoxicity screens of Wong et al. (2023)
Some of the results follow.

Columns and labels:
[1] = system: HSkMC (human skeletal muscle cells); test: cytotoxicity call (relative viability < 0.9); settings: 10 µM
[2] = system: HepG2; test: cytotoxicity call (relative viability < 0.9); settings: 10 µM
[3] = system: S. aureus RN4220; test: growth inhibition call (relative growth <= 0.2); settings: 50 µM

Row | SMILES | cytotoxicity call [1] | cytotoxicity call [2] | growth inhibition call [3]
1 | C[C@@H](NC(=O)COc1ccccc1)C(=O)O | inactive | inactive | inactive
2 | COc1cccc(OC)c1C(=O)O[C@H]1[C@@H]2OC(=O)[C@H](Cc3cccc(Br)c3)C/C=C/C[C@@H](Cc3cccc(Br)c3)C(=O)O[C@H]2[C@@H](OC)O[C@@H]1CO | inactive | inactive | inactive
3 | COc1cccc(C(=O)c2ccccc2)c1 | inactive | inactive | inactive
4 | CN(C)CCN1C[C@@H]2CN(C(=O)[C@H]3CCOC3)C[C@H]2C1=O | inactive | inactive | inactive
5 | CNC[C@@H]1OCCCC[C@@H](C)Oc2ccc(NS(=O)(=O)c3c(C)noc3C)cc2C(=O)N([C@H](C)CO)C[C@@H]1C | inactive | inactive | inactive
6 | Cc1ccc(S(=O)(=O)Nc2ccc3c(c2)C(=O)N([C@H](C)CO)C[C@H](C)[C@H](CN(C)C(=O)Nc2cccc4ccccc24)OCCCC[C@@H](C)O3)cc1 | inactive | inactive | inactive
7 | O=C(O)[C@H]1C[C@@H](CP(=O)(O)O)CCN1 | inactive | inactive | inactive
8 | COc1ccc(S(=O)(=O)N(C)C[C@@H]2Oc3ccc(NS(=O)(=O)c4cccs4)cc3CC(=O)N([C@H](C)CO)C[C@@H]2C)cc1 | inactive | inactive | inactive
9 | C[C@@H]1CN([C@@H](C)CO)S(=O)(=O)c2ccc(C#CC3CC3)cc2O[C@@H]1CN(C)Cc1ccc(F)cc1 | inactive | inactive | inactive
10 | Cc1ccc(S(=O)(=O)Nc2ccc3c(c2)CC(=O)N([C@H](C)CO)C[C@@H](C)[C@H](CN(C)C(=O)Nc2ccc(C(F)(F)F)cc2)O3)cc1 | inactive | inactive | inactive
11 | Cc1ccc(S(=O)(=O)N[C@H](C(=O)NCCn2cc(-c3cccc(/C=C/C(=O)NO)c3)nn2)C(C)C)cc1 | inactive | inactive | inactive
12 | C[C@H]1CCCCO[C@@H](CN(C)C(=O)Nc2ccc(F)cc2)[C@@H](C)CN([C@@H](C)CO)C(=O)c2cc(NC(=O)c3ccccc3)ccc2O1 | inactive | inactive | inactive
13 | CC1=C(/C=C/C(C)=C/C=C/C(C)=C/C=C/C=C(C)/C=C/C=C(C)/C=C/C2=C(C)CCCC2(C)C)C(C)(C)CCC1 | inactive | inactive | inactive
14 | C[C@H]1CN([C@@H](C)CO)C(=O)Cc2cc(NC(=O)Nc3ccccc3)ccc2O[C@H]1CN(C)Cc1ccc(-c2ccccc2)cc1 | inactive | inactive | inactive
15 | CSCC[C@H](NC(=O)[C@@H](N)Cc1c[nH]c2ccccc12)C(=O)N[C@@H](CC(=O)O)C(=O)N[C@@H](Cc1ccccc1)C(N)=O | inactive | inactive | inactive
16 | C[C@@H]1CN([C@H](C)CO)C(=O)c2cccc(NC(=O)Nc3ccccc3)c2O[C@H]1CN(C)Cc1ccc(Oc2ccccc2)cc1 | inactive | inactive | inactive
17 | C=CCOC(=O)[C@@H]1[C@H]2C(=O)O[C@H](c3ccccc3)[C@H](c3ccccc3)N2[C@H](c2ccc(OCCOC(=O)[C@@H]3C[C@@H]4C(=O)NCC(=O)N4[C@@H]3c3ccc(O)cc3)cc2)[C@@]12C(=O)Nc1ccccc12 | inactive | inactive | inactive
18 | C[C@@H]1CCCCO[C@H](CN(C)S(=O)(=O)c2cn(C)cn2)[C@@H](C)CN([C@@H](C)CO)C(=O)c2cc(NC(=O)Nc3ccc(C(F)(F)F)cc3)ccc2O1 | inactive | inactive | inactive
19 | C[C@H](CO)N1C[C@H](C)[C@@H](CN(C)S(C)(=O)=O)Oc2ccc(NC(=O)C3CCCCC3)cc2CC1=O | inactive | inactive | inactive
20 | CC(C)(C)c1csc(-c2ccc(OC(F)(F)F)cc2)n1 | inactive | inactive | inactive
21 | C[C@@H]1CCCCO[C@H](CN(C)C(=O)Nc2ccccc2)[C@H](C)CN([C@H](C)CO)C(=O)c2cc(NC(=O)c3ccncc3)ccc2O1 | inactive | inactive | inactive
22 | CN(C)CCCNC(=O)C[C@H]1CC[C@@H]2[C@H](COc3ccc(NC(=O)c4cccc(F)c4)cc3C(=O)N2C)O1 | inactive | inactive | inactive
23 | CC=Cc1ccc2n(c1=O)C[C@H]1[C@H](CO)[C@@H](C(=O)NC3CCC3)N(S(C)(=O)=O)[C@@H]21 | inactive | inactive | inactive
24 | CN1CCN(C(=O)C[C@H]2CC[C@H]3[C@@H](COc4ccc(NC(=O)c5cscn5)cc4C(=O)N3C)O2)CC1 | inactive | inactive | inactive
25 | C[C@@H]1CN([C@@H](C)CO)C(=O)c2cc(NC(=O)Nc3ccccc3)ccc2O[C@@H]1CN(C)Cc1ccc(Cl)c(Cl)c1 | active | active | inactive
26 | Cc1noc(C)c1S(=O)(=O)N(C)C[C@@H]1OCCCC[C@@H](C)Oc2ccc(NC(=O)Nc3ccc(F)cc3)cc2C(=O)N([C@@H](C)CO)C[C@@H]1C | inactive | inactive | inactive
27 | CN(C)CCCNC(=O)C[C@H]1CC[C@H]2[C@@H](COC[C@H](O)CN2S(=O)(=O)c2ccccc2)O1 | inactive | inactive | inactive

Row | SMILES | cytotoxicity call [1] | cytotoxicity call [2] | growth inhibition call [3]
28 | c1nc2c(c(N3CCOCC3)n1)CCNCC2 | inactive | inactive | inactive
29 | C[C@@H]1CN([C@@H](C)CO)C(=O)c2cccc(NS(=O)(=O)c3ccc(F)cc3)c2O[C@H]1CN(C)C(=O)Nc1ccc(C(F)(F)F)cc1 | inactive | inactive | inactive
30 | O=C(C[C@@H]1C[C@@H]2c3cc(NC(=O)Nc4ccccc4F)ccc3O[C@@H]2[C@H](CO)O1)NCc1ccc(Oc2ccccc2)cc1 | inactive | inactive | inactive
31 | OC[C@@H](O)[C@@H](O)CO | inactive | inactive | inactive
32 | CCS(=O)(=O)Nc1ccc2c(c1)C(=O)N(C)C[C@@H](OC)[C@H](C)CN(Cc1ccccn1)[C@H](C)CO2 | inactive | inactive | inactive
33 | C[C@@H]1CN([C@@H](C)CO)C(=O)c2cc(NC(=O)NC3CCCCC3)ccc2O[C@H]1CN(C)Cc1ccc(-c2ccccc2)cc1 | inactive | inactive | inactive
34 | Cc1ccc(S[C@]2(C(=O)O)CC(=O)N(Cc3ccccc3C(F)(F)F)[C@@H]2c2ccc(CO)cc2)cc1 | inactive | inactive | inactive
35 | NCCNc1ccc([N+](=O)[O-])c(NCCO)c1 | inactive | inactive | inactive
36 | C=CC[C@@H](CC(=O)NCCO)C(=O)N[C@H](COC(=O)[C@H](CC=C)CC(=O)OC(C)(C)C)Cc1ccccc1 | inactive | inactive | inactive
37 | CC(C)NC(=O)N(C)C[C@@H]1Oc2c(NS(=O)(=O)c3ccccc3)cccc2C(=O)N([C@H](C)CO)C[C@H]1C | inactive | inactive | inactive
38 | CNC[C@H]1Oc2ccc(NC(=O)CCN3CCOCC3)cc2CC(=O)N([C@@H](C)CO)C[C@H]1C | inactive | inactive | inactive
39 | O=C(C[C@H]1CC[C@@H](NC(=O)c2cnccn2)[C@H](CO)O1)NCc1ccccc1F | inactive | inactive | inactive
40 | C[C@H]1CN([C@@H](C)CO)C(=O)c2cccc(NC(=O)Nc3ccc(C(F)(F)F)cc3)c2O[C@H]1CN(C)Cc1ccc(Oc2ccccc2)cc1 | active | inactive | inactive
41 | CC(C)NC(=O)N(C)C[C@H]1Oc2cc(C#Cc3ccccn3)ccc2S(=O)(=O)N([C@@H](C)CO)C[C@@H]1C | inactive | inactive | inactive
42 | Cc1ccc(S(=O)(=O)N(C)C[C@H]2Oc3ccc(NS(=O)(=O)c4c(C)noc4C)cc3C(=O)N([C@@H](C)CO)C[C@@H]2C)cc1 | inactive | inactive | inactive
43 | Cc1ccc(S(=O)(=O)N(C)C[C@@H]2Oc3c(NC(=O)Nc4ccc(C(F)(F)F)cc4)cccc3C(=O)N([C@H](C)CO)C[C@@H]2C)cc1 | inactive | inactive | inactive
44 | O=C(C[C@@H]1CC[C@@H]2[C@H](COC[C@H](O)CN2C(=O)Nc2ccc(F)cc2)O1)NCCCN1CCOCC1 | inactive | inactive | inactive
45 | CCN(CC)CCNC(=O)C(=O)NC1CC1 | inactive | inactive | inactive
46 | C[C@H]1CN([C@@H](C)CO)S(=O)(=O)c2ccc(C#CCN(C)C)cc2O[C@H]1CN(C)Cc1ccc(F)cc1 | inactive | inactive | inactive
47 | C[C@@H]1CN([C@H](C)CO)C(=O)c2cc(C#Cc3ccccc3F)cnc2O[C@@H]1CN(C)C(=O)C1CCOCC1 | inactive | inactive | inactive
48 | Cc1noc(C)c1S(=O)(=O)Nc1ccc2c(c1)C(=O)N([C@@H](C)CO)C[C@@H](C)[C@@H](CN(C)Cc1ccc(C(F)(F)F)cc1)OCCCC[C@@H](C)O2 | inactive | inactive | inactive
49 | CN1C(=O)C[C@@H](C(=O)N[C@@H](Cc2cnc[nH]2)C(=O)N2CCC[C@H]2C(N)=O)NC1=O | inactive | inactive | inactive
50 | CC(=O)N(C)C[C@@H]1Oc2ncc(C#C[C@@H](C)O)cc2C(=O)N([C@H](C)CO)C[C@@H]1C | inactive | inactive | inactive
51 | COc1ccc(CN(C)C[C@@H]2Oc3c(NC(=O)Nc4ccc(C(F)(F)F)cc4)cccc3C(=O)N([C@H](C)CO)C[C@H]2C)cc1 | active | inactive | inactive
52 | Cc1noc(C)c1S(=O)(=O)Nc1ccc2c(c1)C(=O)N([C@H](C)CO)C[C@@H](C)[C@H](CN(C)C(=O)Nc1cccc3ccccc13)OCCCC[C@@H](C)O2 | inactive | inactive | inactive
53 | C[C@H](CO)N1C[C@H](C)[C@H](CN(C)S(=O)(=O)c2ccc(C(F)(F)F)cc2)OCc2ccccc2-c2c(n(C)c3ccccc23)C1=O | inactive | inactive | inactive
